This is an account of results in paper PMC7819943, “Rice protein-binding microarrays: a tool to detect cis-acting elements near promoter regions in rice”.

The list shows a part of the results.

In the assay the target is T1, OsWOX13 (Oryza sativa, UniProt Q5QMM3 1-267).
T1 sequence: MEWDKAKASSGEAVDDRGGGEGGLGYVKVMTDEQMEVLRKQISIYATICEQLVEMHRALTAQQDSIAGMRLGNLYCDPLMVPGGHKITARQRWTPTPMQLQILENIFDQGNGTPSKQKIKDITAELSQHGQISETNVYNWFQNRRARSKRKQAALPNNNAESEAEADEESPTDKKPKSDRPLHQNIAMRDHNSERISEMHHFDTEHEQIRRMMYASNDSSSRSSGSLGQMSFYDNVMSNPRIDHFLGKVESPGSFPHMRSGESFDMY
In words: protein-binding microarray (RPBM); PBS, 2% BSA, 51.3 ng/ul salmon testes DNA, 50 uM zinc acetate, 200 nM TF, 25 C, 1 h; high values mean tight binding. The note with it: protein: recombinant; tags: N-terminal polyhistidine and DsRed monomer fusion (pET32a); label: CyDye5-dUTP incorporated in the synthesized complementary strand; 3' TTTTT single-stranded linker to array surface; dsDNA, one strand shown. In outline: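 The binding signal for each feature is its fluorescence intensity in arbitrary units. An Axon 4000B scanner was used to read a custom Agilent array that had been made double-stranded with Cy5-dUTP primer extension, blocked with 2% BSA, incubated at 25 °C for 1 h with 200 nM protein in PBS, 2% BSA, salmon testes DNA and 50 µM zinc acetate, and washed. The protein was an N-terminal polyhistidine–DsRed transcription factor fusion from E. coli BL21-CodonPlus, purified on Ni–NTA.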
Regarding “TTGTAAAATAAATTTATAGCCGTTTAGGTAATATGCAAGCCGGAGTCACCTAGTGCAG”, the binding signal was 7940 fluorescence intensity (a.u.).

With “AATGGATTGGATACCTAAACATCATTTCATAAGAAAATGCCGGAGTCACCTAGTGCAG”, the binding signal is 6190 fluorescence intensity (a.u.).

Regarding “TCAAAATTTGACTTCATGTATAGATTTCTTATCAATCTGTCGGAGTCACCTAGTGCAG”, the binding signal was 8410 fluorescence intensity (a.u.).

On to “AGTCCTTTAATTAATTTATTATTATTATACCAGGACTTGTCGGAGTCACCTAGTGCAG”, for which the binding signal was 24600 fluorescence intensity (a.u.).

For “TTTGATTTGAAGAGAATTAAACAAAATTAAGGGAGAGTAACGGAGTCACCTAGTGCAG”, the binding signal is 28200 fluorescence intensity (a.u.).

As to “ATATATTAACTGCATGCAATTAGAGTTTAATCTTGGGCATCGGAGTCACCTAGTGCAG”, the binding signal is 13300 fluorescence intensity (a.u.).

With “ATTTATGTAATTAGTTTTATAAGTAGTCTATATTTAATACCGGAGTCACCTAGTGCAG”, the binding signal was 4210 fluorescence intensity (a.u.).

On to “AAAATAAGATGATTGAAAGAAAACATGTATAACATAAACACGGAGTCACCTAGTGCAG”, for which the binding signal was 14300 fluorescence intensity (a.u.).

On to “AGAGTTGATAGACGCAAACAAACCAGATAGCTAGCCACCCCGGAGTCACCTAGTGCAG”, for which the binding signal is 24700 fluorescence intensity (a.u.).

For the sequence “AGTTACCAAATAACTGATTATAGTTATTTGGAGAAGGTTACGGAGTCACCTAGTGCAG”, the binding signal was 8300 fluorescence intensity (a.u.).

In the case of “ATACCTTATTGAAATATGATTGTTCGACTGGTTACTGAATCGGAGTCACCTAGTGCAG”, the binding signal was 19500 fluorescence intensity (a.u.).

As for “TTAAATGACTTTCTTTAGGGATTTCTACATAGGATTTGATCGGAGTCACCTAGTGCAG”, the binding signal is 3180 fluorescence intensity (a.u.).

With “AATGCACATGGGGATTGATTGAACTGAAGACGCCATTGATCGGAGTCACCTAGTGCAG”, the binding signal was 37900 fluorescence intensity (a.u.).

For “TTCTGATTAGTTACAACTTGAGTTCACTATTGTCATGATACGGAGTCACCTAGTGCAG”, the binding signal is 37200 fluorescence intensity (a.u.).

As for “GGATTGTAATTTATCATTGGAGCTAATGATGTGGTGTCTTCGGAGTCACCTAGTGCAG”, the binding signal was 12000 fluorescence intensity (a.u.).

Take “ATTAGGATAATGATAAATTACGATAATACTCCTACATGAACGGAGTCACCTAGTGCAG”: the binding signal is 5920 fluorescence intensity (a.u.).

In the case of “CGCAAATCAAATTATGCATATATAGCTTGCTTGGACTTTACGGAGTCACCTAGTGCAG”, the binding signal is 6520 fluorescence intensity (a.u.).

Consider “TCCATGTGATTTTGTTGAATTGTTGGGCCAAGTAAATCTGCGGAGTCACCTAGTGCAG”, for which the binding signal is 13600 fluorescence intensity (a.u.).

As for “TTTAAATGGAAAATTTAGGCGTTGTTAAAGATTTGAGCGACGGAGTCACCTAGTGCAG”, the binding signal was 14800 fluorescence intensity (a.u.).

Turning to “CCACGGGTAAACGGGCAAATTGGCATAATTGCCATCCCTACGGAGTCACCTAGTGCAG”, the binding signal is 8320 fluorescence intensity (a.u.).

In the case of “TTAAAATTTTATTATTTATAATATGAATATTAATAGAGTACGGAGTCACCTAGTGCAG”, the binding signal was 5690 fluorescence intensity (a.u.).

With “ATATTTTGATTTATAATAGGCGGGGAAATAGCTATCTCAACGGAGTCACCTAGTGCAG”, the binding signal is 14800 fluorescence intensity (a.u.).

As to “GTCATTGATTATTTGTTGTAGCACCTTAAATATTGGTTTTCGGAGTCACCTAGTGCAG”, the binding signal is 16400 fluorescence intensity (a.u.).

Consider “ATGTTCTTCAGTTACCGCAAATTTGCATCAACAAATTTGCCGGAGTCACCTAGTGCAG”, for which the binding signal is 6500 fluorescence intensity (a.u.).

“GTTGGAGAGAGTGATTGGGAATTTAGAGGGATGAGGTTATCGGAGTCACCTAGTGCAG”: the binding signal is 10300 fluorescence intensity (a.u.).

“GTTTGACAAAATCACATAATGTTAGACAACGTGCGTAGCCCGGAGTCACCTAGTGCAG”: the binding signal is 12900 fluorescence intensity (a.u.).

For “ATAAATAATTTAAAATTTCACCAAAATTCTAAGAAATTATCGGAGTCACCTAGTGCAG”, the binding signal was 6160 fluorescence intensity (a.u.).

As to “TATATTAATTATCACCTATTGGGCTTTTAAATTTGGTTTACGGAGTCACCTAGTGCAG”, the binding signal is 16600 fluorescence intensity (a.u.).

As for “GAGAAATTTCAATCGTGCAATCTTACTCTATCGTGATATACGGAGTCACCTAGTGCAG”, the binding signal is 10000 fluorescence intensity (a.u.).

Consider “CCCATTGAATTAATTTCGGCGTACATACTGGTGCCTTTTCCGGAGTCACCTAGTGCAG”, for which the binding signal was 5780 fluorescence intensity (a.u.).

Consider “CTAATTAATCTATAATTAGAGAATATTTACTGTAGCATCACGGAGTCACCTAGTGCAG”, for which the binding signal is 22400 fluorescence intensity (a.u.).

“GATGTGACTGAAAAGTTGTATGTGTATGACAGGTTGATGTCGGAGTCACCTAGTGCAG”: the binding signal was 8260 fluorescence intensity (a.u.).

On to “AGGTAATTTAGTGGAATCCGAGCTATCTTCTAGGAGGTTTCGGAGTCACCTAGTGCAG”, for which the binding signal was 7360 fluorescence intensity (a.u.).

As to “AATCTCCTAATTATGTATTGCCCAAATCCATTTATTTTCCCGGAGTCACCTAGTGCAG”, the binding signal was 7170 fluorescence intensity (a.u.).

“ACAATCATAGCAGAATCAAATCAATCAACATCATTATATTCGGAGTCACCTAGTGCAG”: the binding signal is 4800 fluorescence intensity (a.u.).

On to “CCCAGTAATTGGCATGCTTTATCAGTAGTTCAGTACTACTCGGAGTCACCTAGTGCAG”, for which the binding signal was 34000 fluorescence intensity (a.u.).

For “TTAAATTAGTGTCTAAACATCCGATGTGACAGGGACTTGTCGGAGTCACCTAGTGCAG”, the binding signal is 29100 fluorescence intensity (a.u.).

On to “AGAGGAGATTGAGAAGATTGAAAAGATACGTAAAACGAGACGGAGTCACCTAGTGCAG”, for which the binding signal was 39100 fluorescence intensity (a.u.).

As for “GATCTATCTCAATCAACCCACGTGGCCTCACCTCGCCGGACGGAGTCACCTAGTGCAG”, the binding signal was 6630 fluorescence intensity (a.u.).

In the case of “TAAAATTGCCAAATATTGGTAAGCCTAATTTAGGCCTCAACGGAGTCACCTAGTGCAG”, the binding signal was 6980 fluorescence intensity (a.u.).

Turning to “CCATGTGATTATATGGGCCAACCCTGAGCCGCTGACGTGGCGGAGTCACCTAGTGCAG”, the binding signal was 18100 fluorescence intensity (a.u.).

Take “CAAACTGATCATAATTCTAAATATTGCTAGTAAGTTAACCCGGAGTCACCTAGTGCAG”: the binding signal is 9380 fluorescence intensity (a.u.).
